For assay [1], the target named is T1, HA-IFNAR2 (UniProt P48551).
T1 sequence: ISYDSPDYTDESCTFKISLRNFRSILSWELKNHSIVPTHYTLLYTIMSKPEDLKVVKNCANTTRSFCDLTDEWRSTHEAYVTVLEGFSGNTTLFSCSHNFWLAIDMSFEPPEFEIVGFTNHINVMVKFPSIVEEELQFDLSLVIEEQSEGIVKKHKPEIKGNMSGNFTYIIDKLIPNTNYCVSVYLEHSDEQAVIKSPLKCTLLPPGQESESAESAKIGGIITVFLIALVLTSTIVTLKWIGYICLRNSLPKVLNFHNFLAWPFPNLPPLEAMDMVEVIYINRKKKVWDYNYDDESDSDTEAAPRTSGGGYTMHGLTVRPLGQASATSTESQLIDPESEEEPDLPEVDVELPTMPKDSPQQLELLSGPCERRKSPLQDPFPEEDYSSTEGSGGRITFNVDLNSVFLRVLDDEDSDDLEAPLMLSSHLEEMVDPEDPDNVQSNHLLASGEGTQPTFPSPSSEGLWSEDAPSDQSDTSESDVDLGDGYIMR
As to the kind of experiment: co-IP; both partners tagged and co-transfected in HEK293T cells; lysis buffer 150 mM NaCl, 20 mM Tris-HCl pH 7.4, 0.5 mM EDTA, 1% NP-40; protein G agarose, 4 C; some panels with IFNα (1000 IU/ml, 15 min) or Flag-LUBAC overexpression.

Protein sequences, listed by entry. Tags and fused reporters are not part of them. Lines headed by an entry give the natural chain unless they say otherwise; changes in a name come on top. Chains listed by the source or under a name are the forms on record and can include a tag or linker. Residues count along the entry.
UniProt P42224: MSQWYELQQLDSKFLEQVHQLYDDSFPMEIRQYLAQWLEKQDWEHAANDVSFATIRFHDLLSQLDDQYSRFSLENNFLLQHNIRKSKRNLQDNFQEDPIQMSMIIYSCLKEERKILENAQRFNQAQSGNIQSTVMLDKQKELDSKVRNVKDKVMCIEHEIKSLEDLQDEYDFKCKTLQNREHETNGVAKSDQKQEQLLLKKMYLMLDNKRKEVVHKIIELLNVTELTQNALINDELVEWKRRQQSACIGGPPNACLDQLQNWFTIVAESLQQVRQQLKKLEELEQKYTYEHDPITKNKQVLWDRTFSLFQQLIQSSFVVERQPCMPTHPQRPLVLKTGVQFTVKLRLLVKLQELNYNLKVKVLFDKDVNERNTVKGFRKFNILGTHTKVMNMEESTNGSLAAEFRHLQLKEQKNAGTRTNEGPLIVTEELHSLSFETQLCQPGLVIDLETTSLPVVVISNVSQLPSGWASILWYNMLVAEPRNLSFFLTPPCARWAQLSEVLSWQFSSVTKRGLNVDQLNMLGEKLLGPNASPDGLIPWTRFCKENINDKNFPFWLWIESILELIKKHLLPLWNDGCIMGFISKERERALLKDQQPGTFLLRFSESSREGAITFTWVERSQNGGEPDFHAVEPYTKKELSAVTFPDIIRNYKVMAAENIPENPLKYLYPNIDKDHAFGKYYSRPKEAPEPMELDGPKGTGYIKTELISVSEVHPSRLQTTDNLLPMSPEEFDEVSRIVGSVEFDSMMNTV
STAT1 with deletion of the TAD domain (amino acids, 703–750): residues 1-702 of P42224
Myc-STAT1-K511/652R (P42224, form named): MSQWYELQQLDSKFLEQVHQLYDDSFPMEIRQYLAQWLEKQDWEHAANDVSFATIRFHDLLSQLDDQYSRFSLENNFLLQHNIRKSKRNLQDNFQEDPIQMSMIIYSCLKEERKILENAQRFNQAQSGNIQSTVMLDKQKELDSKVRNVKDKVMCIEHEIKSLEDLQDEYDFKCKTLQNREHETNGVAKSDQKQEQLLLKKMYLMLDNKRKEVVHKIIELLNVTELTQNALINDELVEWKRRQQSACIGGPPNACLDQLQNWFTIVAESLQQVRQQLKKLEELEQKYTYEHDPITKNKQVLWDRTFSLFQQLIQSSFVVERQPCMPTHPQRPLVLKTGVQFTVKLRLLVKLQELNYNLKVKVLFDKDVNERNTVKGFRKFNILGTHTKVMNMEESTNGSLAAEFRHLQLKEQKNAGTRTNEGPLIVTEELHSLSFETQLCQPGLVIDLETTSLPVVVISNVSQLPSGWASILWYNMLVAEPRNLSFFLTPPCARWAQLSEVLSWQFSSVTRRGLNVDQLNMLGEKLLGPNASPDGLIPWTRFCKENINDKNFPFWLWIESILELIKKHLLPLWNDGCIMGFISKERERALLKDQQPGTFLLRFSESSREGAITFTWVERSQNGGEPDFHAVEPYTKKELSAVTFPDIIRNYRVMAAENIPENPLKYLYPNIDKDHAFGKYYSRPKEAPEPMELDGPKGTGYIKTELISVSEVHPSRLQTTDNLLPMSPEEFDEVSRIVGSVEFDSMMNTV
UniProt P23458: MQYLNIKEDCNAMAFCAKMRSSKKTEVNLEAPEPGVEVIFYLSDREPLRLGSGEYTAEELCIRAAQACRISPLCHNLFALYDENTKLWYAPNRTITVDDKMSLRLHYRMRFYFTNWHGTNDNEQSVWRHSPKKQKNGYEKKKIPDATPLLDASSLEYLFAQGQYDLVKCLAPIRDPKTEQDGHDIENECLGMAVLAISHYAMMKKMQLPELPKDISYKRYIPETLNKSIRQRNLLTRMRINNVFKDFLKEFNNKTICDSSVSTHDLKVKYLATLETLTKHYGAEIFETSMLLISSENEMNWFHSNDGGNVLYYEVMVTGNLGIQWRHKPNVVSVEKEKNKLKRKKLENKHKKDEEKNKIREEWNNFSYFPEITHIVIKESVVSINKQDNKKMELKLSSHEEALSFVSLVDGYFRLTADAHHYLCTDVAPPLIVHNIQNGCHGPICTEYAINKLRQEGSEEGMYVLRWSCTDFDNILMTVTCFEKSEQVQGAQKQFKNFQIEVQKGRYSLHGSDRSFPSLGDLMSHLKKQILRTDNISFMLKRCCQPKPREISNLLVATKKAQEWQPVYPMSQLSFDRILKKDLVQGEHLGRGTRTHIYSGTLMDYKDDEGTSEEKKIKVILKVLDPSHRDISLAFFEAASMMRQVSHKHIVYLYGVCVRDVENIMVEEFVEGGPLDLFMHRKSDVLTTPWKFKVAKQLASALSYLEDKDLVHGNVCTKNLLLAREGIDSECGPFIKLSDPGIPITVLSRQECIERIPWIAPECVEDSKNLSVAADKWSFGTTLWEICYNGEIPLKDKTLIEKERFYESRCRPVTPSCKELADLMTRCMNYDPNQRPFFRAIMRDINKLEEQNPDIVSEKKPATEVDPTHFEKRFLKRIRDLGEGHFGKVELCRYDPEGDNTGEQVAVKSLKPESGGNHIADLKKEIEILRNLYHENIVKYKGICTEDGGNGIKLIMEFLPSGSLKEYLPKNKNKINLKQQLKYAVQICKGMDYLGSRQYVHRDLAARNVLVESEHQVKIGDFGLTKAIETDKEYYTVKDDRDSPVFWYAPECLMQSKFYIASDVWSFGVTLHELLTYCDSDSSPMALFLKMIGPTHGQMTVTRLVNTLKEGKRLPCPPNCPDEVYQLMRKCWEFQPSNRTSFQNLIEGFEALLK
UniProt Q96BN8: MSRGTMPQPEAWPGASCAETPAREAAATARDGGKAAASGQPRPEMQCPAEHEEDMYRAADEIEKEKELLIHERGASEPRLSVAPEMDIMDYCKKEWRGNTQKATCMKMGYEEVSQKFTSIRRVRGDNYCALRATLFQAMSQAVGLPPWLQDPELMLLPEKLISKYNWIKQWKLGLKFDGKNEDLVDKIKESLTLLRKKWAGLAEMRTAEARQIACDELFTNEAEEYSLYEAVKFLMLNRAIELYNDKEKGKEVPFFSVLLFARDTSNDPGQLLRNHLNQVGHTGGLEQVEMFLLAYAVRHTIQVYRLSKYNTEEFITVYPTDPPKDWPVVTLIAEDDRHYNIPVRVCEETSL
UniProt Q96EP0: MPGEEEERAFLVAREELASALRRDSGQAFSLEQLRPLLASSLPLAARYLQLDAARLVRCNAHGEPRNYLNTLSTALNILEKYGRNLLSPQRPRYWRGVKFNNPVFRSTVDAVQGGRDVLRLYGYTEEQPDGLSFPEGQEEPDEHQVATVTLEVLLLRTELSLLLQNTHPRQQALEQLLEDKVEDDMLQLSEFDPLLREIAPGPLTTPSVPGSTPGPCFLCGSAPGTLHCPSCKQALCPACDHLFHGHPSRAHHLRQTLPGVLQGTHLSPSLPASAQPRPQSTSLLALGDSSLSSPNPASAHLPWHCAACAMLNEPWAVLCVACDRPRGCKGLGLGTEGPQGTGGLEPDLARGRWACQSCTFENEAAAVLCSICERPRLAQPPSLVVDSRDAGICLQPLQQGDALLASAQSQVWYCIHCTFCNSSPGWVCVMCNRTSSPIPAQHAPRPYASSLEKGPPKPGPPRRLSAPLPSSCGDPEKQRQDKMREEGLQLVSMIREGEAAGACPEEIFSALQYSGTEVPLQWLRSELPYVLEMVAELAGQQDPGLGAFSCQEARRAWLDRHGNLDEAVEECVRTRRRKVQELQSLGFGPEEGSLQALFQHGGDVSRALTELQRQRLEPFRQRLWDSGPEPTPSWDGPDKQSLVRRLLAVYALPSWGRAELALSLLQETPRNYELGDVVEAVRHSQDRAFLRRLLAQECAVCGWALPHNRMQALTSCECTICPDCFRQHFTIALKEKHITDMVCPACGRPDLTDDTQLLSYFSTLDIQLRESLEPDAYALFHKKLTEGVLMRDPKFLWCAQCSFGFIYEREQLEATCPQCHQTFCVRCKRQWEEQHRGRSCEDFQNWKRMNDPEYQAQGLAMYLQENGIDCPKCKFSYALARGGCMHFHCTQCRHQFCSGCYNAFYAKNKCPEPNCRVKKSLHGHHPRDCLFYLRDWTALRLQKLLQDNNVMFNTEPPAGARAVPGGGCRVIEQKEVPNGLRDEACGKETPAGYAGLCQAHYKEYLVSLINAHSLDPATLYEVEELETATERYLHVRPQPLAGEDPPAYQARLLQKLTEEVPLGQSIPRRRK

Assay [2] has as its target endogenous STAT1 (human (endogenous in 2fTGH, HEK293T and HeLa)) (UniProt P42224). The assay can be described thus: co-IP.
In assay [3] the target is T1, HA-IFNAR2. As to the kind of experiment: pull-down; in vitro binding assay: Flag-STAT1 (WT or DM) immunoprecipitated from HEK293T and eluted with Flag peptides, mixed with HA-IFNAR2 immunoprecipitates (HA antibody) at 4 °C; immunoblot with anti-Flag or anti-HA; both purified. (In general: In western blotting, separated proteins are transferred to a membrane and probed.)

Assay [4] concerns the target STAT1 with deletion of the TAD domain (amino acids, 703–750) (UniProt P42224). The assay can be described thus: co-IP; both partners tagged and co-transfected in HEK293T cells; lysis buffer 150 mM NaCl, 20 mM Tris-HCl pH 7.4, 0.5 mM EDTA, 1% NP-40; protein G agarose, 4 C; some panels with IFNα (1000 IU/ml, 15 min) or Flag-LUBAC overexpression.
In another assay the target is Myc-STAT1 (UniProt P42224). The assay is described as above.
The target in the next assay is STAT1-Y701F (UniProt P42224). Described as above.
The target in another assay is Myc-STAT1-K652R (UniProt P42224). The description is as above.
The target of another assay is Myc-STAT1-K511R (UniProt P42224). The description is as above.
For assay [5], the target named is Myc-STAT1-K511/652R (UniProt P42224). The description is as above.
Assay [6] addresses endogenous JAK1 (human (endogenous in HEK293T and HeLa)) (UniProt P23458). The assay can be described thus: co-IP.
Assay [7] deals with Myc-STAT1-K511/652R (UniProt P42224). The assay can be described thus: co-IP; one plate of STAT1-deficient U3A cells cotransfected with HA-IFNAR2, Flag-STAT1-WT and Myc-STAT1-DM, treated with IFNα (1000 IU/ml, 15 min); STAT1 forms pulled down separately with Flag or Myc antibodies, HA-IFNAR2 detected.

Results are given in words; binding and its absence hold for the method and conditions named. For some assays here: In cells and extracts the contact can be indirect. Some binding calls cover weakened binding; strength is not graded here. For some assays here: Where a sequence is shown, tags or fusion partners need not be part of it.

As to “Myc-STAT1-K511R (from UniProt P42224 1-750)”, in the assay with HA-IFNAR2 [1], the binding entry was “binds”.
In the case of “OTULIN (from UniProt Q96BN8 1-352) (enzyme)”, the binding result in [2] was “binds”.
In the case of “Flag-STAT1 (DM) (from UniProt P42224 1-750)”, the binding result with HA-IFNAR2 [3] is given as “binds”.
“Flag-HOIP (from UniProt Q96EP0 1-1072) (enzyme)”: the binding entry in [4] is reported as “no binding”; with Myc-STAT1, “binds”; in the assay with STAT1-Y701F it was “binds”; with Myc-STAT1-K652R, “binds”; in the assay with Myc-STAT1-K511R, “binds”; with Myc-STAT1-K511/652R [5] it was “binds”.
For “Myc-STAT1-K652R (from UniProt P42224 1-750)”, the binding entry in the assay with HA-IFNAR2 [1] is “binds”.
Still for that read-out and setting: under “Myc-STAT1-K511/652R (from UniProt P42224 1-750)” stands “binds”.
Regarding “endogenous HOIP (from UniProt Q96EP0 1-1072) (enzyme)”, the binding result in assay [2] is listed as “binds”.
For the molecule “endogenous STAT1 (from UniProt P42224 1-750)”, the binding result in assay [6] is recorded as “binds”.

B1: HA-IFNAR2 (receptor, UniProt P48551 27-515)
chain: ISYDSPDYTDESCTFKISLRNFRSILSWELKNHSIVPTHYTLLYTIMSKPEDLKVVKNCANTTRSFCDLTDEWRSTHEAYVTVLEGFSGNTTLFSCSHNFWLAIDMSFEPPEFEIVGFTNHINVMVKFPSIVEEELQFDLSLVIEEQSEGIVKKHKPEIKGNMSGNFTYIIDKLIPNTNYCVSVYLEHSDEQAVIKSPLKCTLLPPGQESESAESAKIGGIITVFLIALVLTSTIVTLKWIGYICLRNSLPKVLNFHNFLAWPFPNLPPLEAMDMVEVIYINRKKKVWDYNYDDESDSDTEAAPRTSGGGYTMHGLTVRPLGQASATSTESQLIDPESEEEPDLPEVDVELPTMPKDSPQQLELLSGPCERRKSPLQDPFPEEDYSSTEGSGGRITFNVDLNSVFLRVLDDEDSDDLEAPLMLSSHLEEMVDPEDPDNVQSNHLLASGEGTQPTFPSPSSEGLWSEDAPSDQSDTSESDVDLGDGYIMR
For B1, in the assay with Myc-STAT1-K511/652R [7], the binding entry was “binds”.

The record behind these values is publication PMC7052135.
